Measured values taken from PubChem BioAssay AID1468 (National Center for Advancing Translational Sciences (NCATS), 2008).
About 1,100 (0.39%) of roughly 280,000 compounds were called active. The inconclusive results got no clear call from the source; some entries with a clear call stand among them for comparison. The call rests on the fitted dose curve; in most records, active means well fitted inhibition curve with a large enough effect; inconclusive means small, poorly fitted or top-dose-only effect, or effect the other way; inactive means flat fitted curve, though single readings scatter. Potencies of inconclusive entries are left out as doubtful fits.

molecular target: Microtubule-associated protein tau (Homo sapiens) (UniProt P10636); assay: qHTS for Inhibitors of Tau Fibril Formation, Fluorescence Polarization; settings: K18 P301L tau heparin fibrillization, Alexa594 FP, 6 h; series mostly up to 57.7 µM; activity, negative = inhibition: at the top concentration; further: nearly all actives have a fitted effect of over 55% in size
In short: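 Steps: dispense K18 P301L tau (15 uM plus 0.24 uM Alexa 594 tracer, final) in pH 7 sodium acetate; add compound; add heparin (20 uM final); incubate 6 hr, 37 C; add ThT (30 uM final); after 1 hr ambient, read FP.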
On the % scale 0 is the no-effect control and ±100 the full control effect; potency means the concentration at half of the fitted maximal effect; tags describe the fitted curve by direction and shape.

UniProt P10636, sequence (P10636 whole entry, looked up): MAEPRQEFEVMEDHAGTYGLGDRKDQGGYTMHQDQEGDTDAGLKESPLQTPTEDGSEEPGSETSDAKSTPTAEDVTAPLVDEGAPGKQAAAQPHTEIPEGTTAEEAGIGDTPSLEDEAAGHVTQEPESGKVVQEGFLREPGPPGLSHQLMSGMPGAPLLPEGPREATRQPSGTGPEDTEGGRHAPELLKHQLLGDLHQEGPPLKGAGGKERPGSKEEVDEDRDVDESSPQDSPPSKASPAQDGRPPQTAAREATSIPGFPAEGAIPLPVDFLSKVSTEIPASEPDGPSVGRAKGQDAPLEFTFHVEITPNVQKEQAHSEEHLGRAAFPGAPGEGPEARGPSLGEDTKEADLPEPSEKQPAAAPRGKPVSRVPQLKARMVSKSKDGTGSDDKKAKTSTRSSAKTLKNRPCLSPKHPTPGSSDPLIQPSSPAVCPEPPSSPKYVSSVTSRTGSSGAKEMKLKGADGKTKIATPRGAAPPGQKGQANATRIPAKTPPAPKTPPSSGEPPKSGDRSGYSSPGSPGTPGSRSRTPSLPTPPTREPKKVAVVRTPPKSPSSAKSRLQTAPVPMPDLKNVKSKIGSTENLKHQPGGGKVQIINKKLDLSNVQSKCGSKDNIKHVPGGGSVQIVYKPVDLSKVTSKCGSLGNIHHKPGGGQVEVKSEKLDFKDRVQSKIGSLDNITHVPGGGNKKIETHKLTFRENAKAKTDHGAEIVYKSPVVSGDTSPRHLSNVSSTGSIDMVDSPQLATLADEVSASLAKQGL

| SMILES | Potency | activity, negative = inhibition |
| --- | --- | --- |
| CCc1ccc(Nc2cc(C(=O)NCCCN3CCOCC3)c3ccccc3n2)cc1 | inconclusive [activator, full curve, poor fit] |  |
| CCOc1ccc(NS(=O)(=O)c2ccc3[nH]cc(C(=O)NCCc4ccccc4)c(=O)c3c2)cc1 | inconclusive [inhibitor, full curve, poor fit] |  |
| COc1cc(/C=N/N2CCN(c3ccccc3OC)CC2)ccc1O | inconclusive [activator, partial curve] |  |
| COc1ccc2c(c1)c(CC(=O)Nc1cc(C)c(OC)c(C)c1)c(C)n2C(=O)c1ccc(Cl)cc1 | inconclusive [inhibitor, partial curve] |  |
| Cc1ccc(S(=O)(=O)c2cn(CC(=O)Nc3ccccc3)c3cc4c(cc3c2=O)OCO4)cc1 | inconclusive [inhibitor, single point] |  |
| Cc1ccccc1C(=O)c1cccn1CC(=O)N1CCCCCC1 |  | inactive: -6.68% |
| Nc1nonc1-c1nc2ccccc2n1CC(=O)Nc1ccc(F)cc1 | inconclusive [inhibitor, single point] |  |
| O=c1[nH]c(CN2CCOCC2)nc2ccccc12 |  | inactive: -0.785% |
| COc1ccc(-c2nc(SCC(=O)NCc3ccco3)c(-c3ccccc3)[nH]2)cc1OC | inconclusive [activator, full curve] |  |
| Cc1ccc(-c2nc(NC(=O)CSc3nnnn3-c3ccccc3)ns2)cc1 | inconclusive [inhibitor, partial curve, poor fit] |  |
| CC(C)(C)c1cnnn1-c1ccc(C=O)cc1 |  | inactive: 7.23% |
| CCOc1cccc(/C=N/NC(=S)Nc2cc(S(=O)(=O)N3CCOCC3)ccc2N2CCOCC2)c1O | inconclusive [activator, full curve, poor fit] |  |
| OC(c1cc(-c2ccc(C(F)(F)F)cc2)nc(C(F)(F)F)c1)C1CCCCN1 (stereo not given) | inconclusive [inhibitor, partial curve] |  |
| Cc1cccc(NC(=O)c2nc[nH]c2C(=O)N[C@@H](Cc2ccccc2)C(=O)OCc2ccccc2)c1 | active: 11.2 µM |  |
| O=C(Cn1c(=O)n(-c2ccccc2)c(=O)c2c3c(sc21)CCCC3)Nc1ccc(F)cc1 | inconclusive [inhibitor, partial curve] |  |
| CC(=O)N(\C=C/C=C/C=C1\Sc2ccccc2C1=O)c1ccccc1 | inconclusive [inhibitor, single point] |  |
| CC(=O)c1ccc(NC(=O)COc2ccccc2-c2nc(C)no2)cc1 | inconclusive [activator, partial curve, poor fit] |  |
| CCOC(=O)Cn1cc(/C=N/N2C(=O)C3C4C=CC(C4)C3C2=O)c2ccccc21 (stereo not given) |  | inactive: 11.9% |
| Clc1ccc(SCNc2ccccc2Cl)cc1 | inconclusive [inhibitor, single point] |  |
| CN1CCc2c(sc3c2C(=O)NC(c2ccc(-c4ccc(Cl)cc4)o2)N3)C1 (stereo not given) | inconclusive [inhibitor, single point] |  |
| CC(C)COP(=O)(c1ccc(N(C)C)cc1)C(O)c1ccccn1 (stereo not given) |  | inactive: 1.5% |
| C=CCn1c(N)cc(=O)nc1SCC(=O)N1CCN(c2ccc(F)cc2)CC1 |  | inactive: -1.67% |

| SMILES | Potency | activity, negative = inhibition |
| --- | --- | --- |
| COc1cc(/C=N/NC(=O)c2cccc(NC(=O)c3ccccc3Cl)c2)ccc1O |  | inactive: 2.31% |
| O=C(O)Cc1c[nH]c2cccc(O)c12 | inconclusive [inhibitor, single point] |  |
| COc1cccc(NC(=O)CN2C(=O)C3(SCC(=O)N3c3cc(C)cc(C)c3)c3ccccc32)c1 (stereo not given) | inconclusive [inhibitor, single point] |  |
| Cc1ccc(NC(=O)C2CCN(S(=O)(=O)c3c(C)noc3C)CC2)cc1C | inconclusive [activator, single point] |  |
| Cc1ccc(CN2C(=O)N(c3ccc(C)c(Cl)c3)S(=O)(=O)c3ccccc32)cc1 | inconclusive [inhibitor, partial curve] |  |
| COC(=O)c1sc2ncccc2c1OCc1ccccc1Cl | inconclusive [inhibitor, single point] |  |
| COc1ccc(N2CCN(C(=O)c3ccc(N(C)S(=O)(=O)c4ccc(C)cc4)cc3)CC2)cc1 | inconclusive [activator, partial curve, poor fit] |  |
| COC(=O)c1c(-c2cccs2)csc1NC(=O)COc1ccc(C(C)C)cc1 | inconclusive [inhibitor, partial curve] |  |
| O=C(NC1(O)C(=O)c2ccccc2C1=O)c1ccccc1 | inconclusive [inhibitor, full curve] |  |
| Cn1c(=O)c2ncn(CC(=O)Nc3cccc(-c4nc5ccccc5s4)c3)c2n(C)c1=O | inconclusive [inhibitor, partial curve, poor fit] |  |
| O=C(Nc1ccc(Cl)cc1C(F)(F)F)c1cc(S(=O)(=O)NCc2ccccc2)ccc1F | inconclusive [inhibitor, single point] |  |
| COc1ccc(/C=C(\C#N)c2nc(-c3cc4ccccc4oc3=O)cs2)cc1OC | inconclusive [inhibitor, full curve, poor fit] |  |
| COc1ccccc1N1CCN(C(=O)c2oc3ccccc3c2N)CC1 | inconclusive [activator, partial curve] |  |
| O=C(NC1CCCCC1)C(c1cccnc1)N(CCc1ccccc1)C(=O)Cc1cccs1 (stereo not given) |  | inactive: 3.72% |
| CCOC(=O)c1c(NC(=O)CN2C(=O)NC(C)(c3ccccc3)C2=O)sc(C)c1C (stereo not given) |  | inactive: 4.08% |
| CC(C)c1ccc(-c2noc(SCC(=O)N3CCCCC3)n2)cc1 |  | inactive: -9.08% |
| O=C(/C=C/c1ccccc1)Nc1cc(-c2nc3ccccc3o2)ccc1Cl | inconclusive [inhibitor, full curve, poor fit] |  |
| COC(=O)C1=C(C)NC(=S)NC1c1sccc1C (stereo not given) | inconclusive [activator, single point] |  |
| O=C(O)/C=C/c1ccc2noc(-c3ccccc3)c2c1 |  | inactive: 2.15% |
| Cc1c(C(=O)OCC(=O)N2CC(=O)Nc3ccccc32)oc2ccc(Br)cc12 | inconclusive [inhibitor, single point] |  |
| CCOc1cc(NC(=S)N2CCC(C(N)=O)CC2)c(C(=O)OC)cc1OCC | inconclusive [inhibitor, single point] |  |
| COC(=O)CNC(=O)CCc1nnc(C2(c3ccc(Cl)cc3)CCC2)o1 |  | inactive: -10.2% |

| SMILES | Potency | activity, negative = inhibition |
| --- | --- | --- |
| COc1ccc(C(=O)Nc2cc(C(C)=O)c(C)oc2=O)cc1 | inconclusive [inhibitor, single point] |  |
| O=C(CN1C(=O)S/C(=C\C=C\c2ccccc2)C1=O)Nc1cccc(O)c1 | inconclusive [inhibitor, partial curve] |  |
| COc1ccc(NS(=O)(=O)c2cc(NC(=O)/C=C/c3ccccc3OC)ccc2N2CCCCC2)cc1 | inconclusive [inhibitor, partial curve] |  |
| CSc1cccc(NS(=O)(=O)c2ccc3[nH]cc(C(=O)N4CCCCCC4)c(=O)c3c2)c1 |  | inactive: -13.1% |
| Cc1cc2ccc(C)c(C)c2nc1SCC(=O)c1cccs1 | inconclusive [inhibitor, full curve, poor fit] |  |
| CCOC(=O)c1nnc2c(-c3ccc(F)cc3)c(C)nn2c1N |  | inactive: -1.41% |
| COc1ccc(/C=C\c2onc(C)c2S(=O)(=O)N2CCC(C(=O)Nc3ccc(C)c(F)c3)CC2)cc1 | inconclusive [inhibitor, partial curve] |  |
| COc1cc(/C=N/Nc2nc(Nc3ccccc3)nc(N3CCOCC3)n2)ccc1OC(=O)c1ccco1 | inconclusive [inhibitor, partial curve] |  |
| CCCCc1nnc(NC(=O)Cn2cnc3ccccc3c2=O)s1 | inconclusive [inhibitor, single point] |  |
| CCOC(=O)C1CCCN(C(=O)Cn2nc(C)n3c(cc4c(OC)cccc43)c2=O)C1 (stereo not given) |  | inactive: 0.87% |
| Cc1ccc(/C=C/S(=O)(=O)NCc2ccc(F)cc2)cc1 |  | inactive: 1.97% |
| COc1ccc(S(=O)(=O)N(C(=O)c2ccncc2)c2ccc3oc(C)c(C(C)=O)c3c2)cc1 |  | inactive: 10.2% |
| CCN1C/C(=C/c2cccc([N+](=O)[O-])c2)C(=O)/C(=C/c2cccc([N+](=O)[O-])c2)C1 | inconclusive [inhibitor, partial curve] |  |
| Cc1nc2ccc(NC(=O)c3ccc(Cl)c(S(=O)(=O)N(C)c4ccccc4)c3)cc2s1 | inconclusive [inhibitor, partial curve] |  |
| Cc1ccc(NC(=O)C(C)c2ccc(-c3ccccc3)c(F)c2)cc1 (stereo not given) | inconclusive [inhibitor, single point] |  |
| CCOc1nc(NC(=O)NS(=O)(=O)c2ccccc2F)nc(-c2ccccc2)n1 | inconclusive [activator, single point] |  |
| COC(=O)CN1C(=O)N/C(=C/c2ccc(C)o2)C1=O | inconclusive [inhibitor, single point] |  |
| Cn1cc(-c2cc3n(n2)CCC(=O)N3CC(=O)NCc2ccccc2)c2ccccc21 |  | inactive: -0.256% |
| COc1ccc(NC(=S)NCC2CCCO2)c(OC)c1 (stereo not given) |  | inactive: 0.126% |
| CCCC(=O)Nc1sc2c(c1C(=O)OC)C(C(=O)OC)CC2 (stereo not given) | inconclusive [inhibitor, full curve, poor fit] |  |
| Cc1ccc(NC(=O)Cn2c(=O)n(CCc3ccccc3)c(=O)c3sc4ccccc4c32)cc1C | inconclusive [inhibitor, partial curve] |  |
